These results are taken from US4006251A, “Bactericidal and fungicidal composition containing thiocarbanyl sulfenamides” (The B. F. Goodrich Company, priority 1973, dated 1977).

Bounds are passed on as bounds.

One experiment relates to Asperigillus niger. The experiment is described as follows: Agar Screening Test and/or Penicillin Button Assay Test, (a). Particulars: a fungus, ppm by weight based upon the weight of the agar.
A further experiment has as its system Bacillus subtilis. Description: Agar Screening Test and/or Penicillin Button Assay Test, (b). Particulars: ppm by weight based upon the weight of the agar.
The test system of a further experiment is Staphylococcus aureus. The experiment is described as follows: Agar Screening Test and/or Penicillin Button Assay Test, (c). Particulars: ppm by weight based upon the weight of the agar.
The test system of another experiment is Salmonella typhosa. Description: Agar Screening Test and/or Penicillin Button Assay Test, (d). Particulars: ppm by weight based upon the weight of the agar.

Consider `CCCCN(CCCC)C(=S)SN(C1CCCCC1)C1CCCCC1` [C, N,N-dibutylthiocarbamyl-N',N'-dicyclohexylsulfenamide], for which the “lowest concentration that prevents growth or sporulation of the organism” value with Asperigillus niger was over 1000 ppm; with Bacillus subtilis it was over 10000 ppm; with Staphylococcus aureus, over 10000 ppm; with Salmonella typhosa it was over 10000 ppm.
For `CN(C)C(=S)SN(C1CCCCC1)C1CCCCC1` [Compound A, N,N-dimethylthiocarbamyl-N',N'-dicyclohexylsulfenamide], the “lowest concentration that prevents growth or sporulation of the organism” value in the experiment with Asperigillus niger is recorded as 300 ppm; in the experiment on Bacillus subtilis, 10 ppm; with Staphylococcus aureus, 20 ppm; in the experiment with Salmonella typhosa, 50 ppm.
With `CCN(CC)C(=S)SN(C1CCCCC1)C1CCCCC1` [Compound B, N,N-diethylthiocarbamyl-N',N'-dicyclohexylsulfenamide], the “lowest concentration that prevents growth or sporulation of the organism” value in the experiment with Asperigillus niger is given as over 1000 ppm; with Bacillus subtilis it was 50 ppm; in the experiment on Staphylococcus aureus, 20 ppm; in the experiment on Salmonella typhosa, 100 ppm.
The like results for `S=C(SN1CCOCC1)N1CCOCC1` [Compound G, N-oxydiethylenethiocarbamyl-N'-oxydiethylenesulfenamide] were, in that order, 1000 ppm, 50 ppm, 50 ppm and 100 ppm.
Consider `CN(C)C(=S)SNc1ccccc1` [Compound H, N,N-dimethylthiocarbamyl-N'-phenylsulfenamide], for which the “lowest concentration that prevents growth or sporulation of the organism” value in the experiment with Asperigillus niger was found to be 300 ppm; with Bacillus subtilis it was 20 ppm; in the experiment on Staphylococcus aureus, 50 ppm; in the experiment with Salmonella typhosa, 50 ppm.
On to `CCCCCCCCCCCCCCCCCCCCN(CCCCCCCCCCCCCCCCCCCC)C(=S)SN(C1CCCCC1)C1CCCCC1` [D, N,N-dieicosylthiocarbamyl-N',N'-dicyclohexylsulfenamide], for which the “lowest concentration that prevents growth or sporulation of the organism” value is over 1000 ppm with Asperigillus niger, > 10,000 ppm with Bacillus subtilis, > 10,000 ppm in the experiment on Staphylococcus aureus and > 10,000 ppm in the experiment on Salmonella typhosa.
With `S=C(SN(C1CCCCC1)C1CCCCC1)N1CCOCC1` [E, N-oxydiethylenethiocarbamyl-N',N'-dicyclohexylsulfenamide], the “lowest concentration that prevents growth or sporulation of the organism” value in the experiment on Asperigillus niger is over 1000 ppm; in the experiment on Bacillus subtilis, 10,000 ppm; with Staphylococcus aureus, 10,000 ppm; with Salmonella typhosa it was > 10,000 ppm.
For the compound `S=C(SN(C1CCCCC1)C1CCCCC1)N1CCCCCC1` [F, N-hexamethylenethiocarbamyl-N',N'-dicyclohexylsulfenamide], the “lowest concentration that prevents growth or sporulation of the organism” value with Asperigillus niger is recorded as over 1000 ppm; in the experiment on Bacillus subtilis, > 10,000 ppm; in the experiment on Staphylococcus aureus, > 10,000 ppm; in the experiment with Salmonella typhosa, > 10,000 ppm.
`CCN(CC)C(=S)SNc1ccccc1` [I, N,N-diethylthiocarbamyl-N'-phenylsulfenamide]: the “lowest concentration that prevents growth or sporulation of the organism” value was over 1000 ppm in the experiment with Asperigillus niger, 10,000 ppm with Bacillus subtilis, 1000 ppm in the experiment on Staphylococcus aureus and 10,000 ppm in the experiment on Salmonella typhosa.
